Experimental data as given in the supplement of paper PMC8728848.
The list shows a part of the results.

Legend:
Experiment in all cases: glycan array binding signal (z-score within array); higher = stronger binding
Conditions in all cases: glycan notation: IUPAC condensed, linker removed
GlcNAc(b1-6)GalNAc = molecular target: GlcNAc(b1-6)GalNAc
Summary of the method: (§1)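 The binding signal is a Z-score computed within each array and averaged over linkers. Arrays of the same protein sequence at different concentrations or buffers were also averaged together. Data originate from 3228 arrays in the Consortium for Functional Glycomics database, kept only where the protein sequence was available.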

GlcNAc3Prop(b1-4)GlcNAc = molecular target: GlcNAc3Prop(b1-4)GlcNAc
Summary of the method: as §1

Kdn(a2-3)Gal(b1-3)GlcNAc = molecular target: Kdn(a2-3)Gal(b1-3)GlcNAc
Summary of the method: as §1

Kdn(a2-3)Gal(b1-4)GlcNAc = molecular target: Kdn(a2-3)Gal(b1-4)GlcNAc
Summary of the method: as §1

[1] = molecular target: Man(a1-2)Man(a1-2)Man(a1-3)Man
Summary of the method: as §1

[2] = molecular target: Man(a1-2)Man(a1-2)Man(a1-6)[Man(a1-3)]Man
Summary of the method: as §1

Man(a1-2)Man(a1-3)Man = molecular target: Man(a1-2)Man(a1-3)Man
Summary of the method: as §1

[3] = molecular target: Man(a1-2)Man(a1-3)[Man(a1-2)Man(a1-6)]Man
Summary of the method: as §1

[4] = molecular target: Man(a1-2)Man(a1-3)[Man(a1-2)Man(a1-6)]Man(a1-6)[Man(a1-2)Man(a1-2)Man(a1-3)]Man
Summary of the method: as §1

[5] = molecular target: Man(a1-2)Man(a1-3)[Man(a1-2)Man(a1-6)]Man(a1-6)[Man(a1-2)Man(a1-2)Man(a1-3)]Man(b1-4)GlcNAc(b1-4)GlcNAc
Summary of the method: as §1

[6] = molecular target: Man(a1-2)Man(a1-3)[Man(a1-6)]Man(a1-6)[Man(a1-2)Man(a1-3)]Man(b1-4)GlcNAc(b1-4)GlcNAc
Summary of the method: as §1

[7] = molecular target: Man(a1-2)Man(a1-6)[Man(a1-3)]Man(a1-6)[Man(a1-2)Man(a1-2)Man(a1-3)]Man
Summary of the method: as §1

[8] = molecular target: Man(a1-2)Man(a1-6)[Man(a1-3)]Man(a1-6)[Man(a1-2)Man(a1-2)Man(a1-3)]Man(b1-4)GlcNAc(b1-4)GlcNAc
Summary of the method: as §1

Man(a1-3)[Man(a1-6)]Man = molecular target: Man(a1-3)[Man(a1-6)]Man
Summary of the method: as §1

[9] = molecular target: Man(a1-3)[Man(a1-6)]Man(a1-6)[Man(a1-2)Man(a1-3)]Man(b1-4)GlcNAc(b1-4)GlcNAc
Summary of the method: as §1

[10] = molecular target: Man(a1-3)[Man(a1-6)]Man(a1-6)[Man(a1-3)]Man
Summary of the method: as §1

[11] = molecular target: Man(a1-3)[Man(a1-6)]Man(a1-6)[Man(a1-3)]Man(b1-4)GlcNAc(b1-4)GlcNAc
Summary of the method: as §1

[12] = molecular target: Man(a1-3)[Man(a1-6)]Man(b1-4)GlcNAc(b1-4)GlcNAc
Summary of the method: as §1

Man(a1-6)Man = molecular target: Man(a1-6)Man
Summary of the method: as §1

Man(b1-4)GlcNAc = molecular target: Man(b1-4)GlcNAc
Summary of the method: as §1

Neu5Ac(a2-3)Gal = molecular target: Neu5Ac(a2-3)Gal
Summary of the method: as §1

[13] = molecular target: Neu5Ac(a2-3)Gal(b1-3)GalNAc
Summary of the method: as §1

[14] = molecular target: Neu5Ac(a2-3)Gal(b1-3)GalNAc(b1-3)Gal(a1-4)Gal(b1-4)Glc
Summary of the method: as §1

[15] = molecular target: Neu5Ac(a2-3)Gal(b1-3)GalNAc(b1-3)Gal(b1-4)GlcNAc
Summary of the method: as §1

[16] = molecular target: Neu5Ac(a2-3)Gal(b1-3)GalNAc(b1-4)[Neu5Ac(a2-3)]Gal(b1-4)Glc
Summary of the method: as §1

[17] = molecular target: Neu5Ac(a2-3)Gal(b1-3)GalNAc6S
Summary of the method: as §1

[18] = molecular target: Neu5Ac(a2-3)Gal(b1-3)GlcNAc
Summary of the method: as §1

[19] = molecular target: Neu5Ac(a2-3)Gal(b1-3)GlcNAc(b1-3)Gal(b1-3)GlcNAc
Summary of the method: as §1

[20] = molecular target: Neu5Ac(a2-3)Gal(b1-3)GlcNAc6S
Summary of the method: as §1

[21] = molecular target: Neu5Ac(a2-3)Gal(b1-3)[Fuc(a1-4)]GlcNAc
Summary of the method: as §1

[22] = molecular target: Neu5Ac(a2-3)Gal(b1-3)[Fuc(a1-4)]GlcNAc(b1-3)Gal(b1-4)[Fuc(a1-3)]GlcNAc
Summary of the method: as §1

[23] = molecular target: Neu5Ac(a2-3)Gal(b1-3)[Neu5Ac(a2-3)Gal(b1-4)]GlcNAc
Summary of the method: as §1

[24] = molecular target: Neu5Ac(a2-3)Gal(b1-3)[Neu5Ac(a2-6)]GalNAc
Summary of the method: as §1

Neu5Ac(a2-3)Gal(b1-4)Glc = molecular target: Neu5Ac(a2-3)Gal(b1-4)Glc
Summary of the method: as §1

[25] = molecular target: Neu5Ac(a2-3)Gal(b1-4)GlcNAc
Summary of the method: as §1

[26] = molecular target: Neu5Ac(a2-3)Gal(b1-4)GlcNAc(b1-2)Man(a1-3)[GlcNAc(b1-2)Man(b1-4)GlcNAc(b1-2)Man(a1-6)]Man(b1-4)GlcNAc(b1-4)GlcNAc
Summary of the method: as §1

[27] = molecular target: Neu5Ac(a2-3)Gal(b1-4)GlcNAc(b1-2)Man(a1-3)[Neu5Ac(a2-6)Gal(b1-4)GlcNAc(b1-2)Man(a1-6)]Man(b1-4)GlcNAc(b1-4)GlcNAc
Summary of the method: as §1

[28] = molecular target: Neu5Ac(a2-3)Gal(b1-4)GlcNAc(b1-3)Gal(b1-3)GlcNAc
Summary of the method: as §1

[29] = molecular target: Neu5Ac(a2-3)Gal(b1-4)GlcNAc(b1-3)Gal(b1-4)GlcNAc
Summary of the method: as §1

[30] = molecular target: Neu5Ac(a2-3)Gal(b1-4)GlcNAc(b1-3)Gal(b1-4)GlcNAc(b1-3)Gal(b1-4)GlcNAc
Summary of the method: as §1

[31] = molecular target: Neu5Ac(a2-3)Gal(b1-4)GlcNAc(b1-3)Gal(b1-4)[Fuc(a1-3)]GlcNAc
Summary of the method: as §1

[32] = molecular target: Neu5Ac(a2-3)Gal(b1-4)GlcNAc(b1-6)[Gal(b1-3)]GalNAc
Summary of the method: as §1

[33] = molecular target: Neu5Ac(a2-3)Gal(b1-4)GlcNAc(b1-6)[Neu5Ac(a2-3)Gal(b1-3)]GalNAc
Summary of the method: as §1

[34] = molecular target: Neu5Ac(a2-3)Gal(b1-4)GlcNAc6S
Summary of the method: as §1

B1: MCI4 (Toxoplasma gondii), Q9XZH7 (protein)
chain: MRASLPVHLVVCTQLSAVWFGVAKAHGGHRLEPHVPGFLQGFTDITPAGDDVSANVTSSEPAKLDLSCVHSDNKGSRAPTIGEPVPDVSLEQCAAQCKAVDGCTHFTYNDDSKMCHVKEGKPDLYDLTGGKTASRSCDRSCFEQHVSYEGAPDVMTAMVTSQSADCQAACAADPSCEIFTYNEHDQKCTFKGRGFSAFKERGVLGVTSGPKQFCDEGGKLTQEEMEDQISGCIQLSDVGSMTADLEEPMEADSVGACMERCRCDGRCTHFTFNDNTRMCYLKGDKMQLYSSPGDRTGPKSCDSSCFSNGVSYVDDPATDVETVFEISHPIYCQVICAANPLCTVFQWYASEAKCVVKRKGFYKHRKTGVTGVTVGPREFCDFGGSIRDREEADAVGSDDGLNAEATMANSPDFHDEVECVHTGNIGSKAQTIGEVKRASSLSECRARCQAEKECSHYTYNVKSGLCYPKRGKPQFYKYLGDMTGSRTCDTSCLRRGVDYSQGPEVGKPWYSTLPTDCQVACDAEDACLVFTWDSATSRCYLIGSGFSAHRRNDVDGVVSGPYTFCDNGENLQVLEAKDTE
GlcNAc(b1-6)GalNAc
  glycan array binding signal (z-score): -0.145
GlcNAc3Prop(b1-4)GlcNAc
  glycan array binding signal (z-score): -0.227
Kdn(a2-3)Gal(b1-3)GlcNAc
  glycan array binding signal (z-score): -0.206
Kdn(a2-3)Gal(b1-4)GlcNAc
  glycan array binding signal (z-score): -0.205
[1]
  glycan array binding signal (z-score): -0.218
[2]
  glycan array binding signal (z-score): -0.213
Man(a1-2)Man(a1-3)Man
  glycan array binding signal (z-score): -0.186
[3]
  glycan array binding signal (z-score): -0.213
[4]
  glycan array binding signal (z-score): -0.202
[5]
  glycan array binding signal (z-score): -0.207
[6]
  glycan array binding signal (z-score): -0.222
[7]
  glycan array binding signal (z-score): -0.216
[8]
  glycan array binding signal (z-score): -0.208
Man(a1-3)[Man(a1-6)]Man
  glycan array binding signal (z-score): -0.197
[9]
  glycan array binding signal (z-score): -0.213
[10]
  glycan array binding signal (z-score): -0.188
[11]
  glycan array binding signal (z-score): -0.209
[12]
  glycan array binding signal (z-score): -0.208
Man(a1-6)Man
  glycan array binding signal (z-score): -0.218
Man(b1-4)GlcNAc
  glycan array binding signal (z-score): -0.229
Neu5Ac(a2-3)Gal
  glycan array binding signal (z-score): -0.221
[13]
  glycan array binding signal (z-score): -0.218
[14]
  glycan array binding signal (z-score): -0.213
[15]
  glycan array binding signal (z-score): -0.203
[16]
  glycan array binding signal (z-score): -0.216
[17]
  glycan array binding signal (z-score): -0.21
[18]
  glycan array binding signal (z-score): -0.209
[19]
  glycan array binding signal (z-score): -0.209
[20]
  glycan array binding signal (z-score): -0.221
[21]
  glycan array binding signal (z-score): -0.215
[22]
  glycan array binding signal (z-score): -0.206
[23]
  glycan array binding signal (z-score): -0.213
[24]
  glycan array binding signal (z-score): -0.216
Neu5Ac(a2-3)Gal(b1-4)Glc
  glycan array binding signal (z-score): -0.205
[25]
  glycan array binding signal (z-score): -0.205
[26]
  glycan array binding signal (z-score): -0.168
[27]
  glycan array binding signal (z-score): -0.198
[28]
  glycan array binding signal (z-score): -0.204
[29]
  glycan array binding signal (z-score): -0.195
[30]
  glycan array binding signal (z-score): -0.224
[31]
  glycan array binding signal (z-score): -0.217
[32]
  glycan array binding signal (z-score): -0.231
[33]
  glycan array binding signal (z-score): -0.208
[34]
  glycan array binding signal (z-score): -0.19
